Laboratory results published in the antibiotic and cytotoxicity screens of Wong et al. (2023).
The list shows a part of the results.

Legend:
HSkMC = human skeletal muscle cells; assay: cytotoxicity call (relative viability < 0.9); settings: 10 µM
HepG2 = assay: cytotoxicity call (relative viability < 0.9); settings: 10 µM
S. aureus RN4220 = assay: growth inhibition call (relative growth <= 0.2); settings: 50 µM

C[C@H]1CN([C@@H](C)CO)C(=O)c2cc(-c3ccc(F)cc3)cnc2O[C@@H]1CN(C)C(=O)Cc1ccccn1
inactive: cytotoxicity call (HSkMC) | cytotoxicity call (HepG2) | growth inhibition call (S. aureus RN4220)

O=C(C[C@H]1C[C@@H]2c3cc(NC(=O)c4ccc5c(c4)OCO5)ccc3O[C@@H]2[C@@H](CO)O1)NCc1cccnc1
inactive: cytotoxicity call (HSkMC) | cytotoxicity call (HepG2) | growth inhibition call (S. aureus RN4220)

C[C@H]1CN([C@@H](C)CO)C(=O)c2cccc(NS(=O)(=O)c3cn(C)cn3)c2O[C@@H]1CN(C)Cc1ccc2c(c1)OCO2
inactive: cytotoxicity call (HSkMC) | cytotoxicity call (HepG2) | growth inhibition call (S. aureus RN4220)

C[C@@H]1CN([C@@H](C)CO)C(=O)c2cc(NC(=O)NC3CCCCC3)ccc2O[C@@H](C)CCCCO[C@H]1CN(C)Cc1ccc2c(c1)OCO2
inactive: cytotoxicity call (HSkMC) | cytotoxicity call (HepG2) | growth inhibition call (S. aureus RN4220)

Cc1ccc(S(=O)(=O)N(C)C[C@@H]2Oc3c(NC(=O)C4CCOCC4)cccc3C(=O)N([C@@H](C)CO)C[C@@H]2C)cc1
inactive: cytotoxicity call (HSkMC) | cytotoxicity call (HepG2) | growth inhibition call (S. aureus RN4220)

O=C(CN1CCOCC1)NCC[C@H]1CC[C@H](NS(=O)(=O)c2ccc(Cl)cc2)[C@H](CO)O1
inactive: cytotoxicity call (HSkMC) | cytotoxicity call (HepG2) | growth inhibition call (S. aureus RN4220)

Cc1ccc(S(=O)(=O)N(C)C[C@@H]2Oc3ccc(NS(=O)(=O)c4cn(C)cn4)cc3C(=O)N([C@@H](C)CO)C[C@H]2C)cc1
inactive: cytotoxicity call (HSkMC) | cytotoxicity call (HepG2) | growth inhibition call (S. aureus RN4220)

C=C/C=C/[C@H]1C(=C)CN([C@H](Cc2ccc(-n3cc(C(=O)NO)nn3)cc2)C(=O)OC)[C@@H]1[C@H](O)Cc1ccccc1
inactive: cytotoxicity call (HSkMC) | cytotoxicity call (HepG2) | growth inhibition call (S. aureus RN4220)

C[C@@H]1CN([C@@H](C)CO)S(=O)(=O)c2ccc(-c3cncnc3)cc2O[C@@H]1CN(C)C(=O)Cc1ccccc1
inactive: cytotoxicity call (HSkMC) | cytotoxicity call (HepG2) | growth inhibition call (S. aureus RN4220)
